ChEMBL document CHEMBL4888484, “Replenishing the malaria drug discovery pipeline: Screening and hit evaluation of the MMV Hit Generation Library 1 (HGL1) against asexual blood stage Plasmodium falciparum ,using a nano luciferase reporter read-out” (2022)
Out of some 150,000 compounds screened, about 540 (0.36%) showed an effect of 50% or more. This is one part of the list.

Tested on: Plasmodium falciparum
Assay: Primary screen in NF54 nanoGlo assay, in single point, at 2uM, 72h; a lower Z score goes with more inhibition
Assay type: functional, Erythrocyte
Conditions: timepoint 72 hour

| SMILES | % Inhibition | Z score |
| --- | --- | --- |
| CCOC(=O)c1cn[nH]c1[C@H]1CCN(Cc2nnnn2C(C)(C)C)C1 | -7% | 1.46 |
| CCCn1nc(C)cc1CN(C)c1ccc(C(=O)O)cc1NC(=O)c1ccc(Br)cc1 | -9% | 1.45 |
| CC1CC(N(C)C(=O)CC(N)c2ccccc2)CCN1Cc1ccccc1 (stereo not given) | 0% | 0.01 |
| CC(C)C(=O)NCC1CCN(C(C)C)CC1 | -8% | 1.3 |
| COc1cc(F)c(CN(C)C[C@H]2CCOC2)c(F)c1 | -9% | 1.54 |
| O=C(NCc1ccncc1)[C@H]1CCCN(c2nc3ccccc3n2CC2CCCCC2)C1 | -7% | 0.71 |
| CC(C)(CNS(C)(=O)=O)c1cccs1 | -4% | 0.49 |
| CC1(C)OCC[C@@H]1N1N=C(c2ccc(Cl)cc2)CC1=O | -7% | 1.28 |
| CC(C)N(CC(N)=O)CC(=O)N(C)Cc1ccccc1 | 32% | -3.6 |
| Cc1ccc(Cn2c(C)c(CNC3CCCCCC3)c(C(=O)O)c2C)cc1 | -8% | 1.51 |
| CC1=NN([C@H](NC(N)=O)c2ccccc2)C(=O)C1(C)C | -10% | 1.33 |
| CN(C(=O)n1nnc2ccccc21)c1ccccc1 | -1% | 0.1 |
| CC[C@@](NC(=O)c1ccncc1)(C(N)=O)C(C)C | -9% | 0.77 |
| COC(=O)c1ccc(-c2nc(-c3cc(C)nc4ccccc34)no2)cc1 | -13% | 2.04 |
| O=C(Cc1cccnc1)N1CCN(c2ccccn2)C(=O)C1 | -9% | 1.83 |
| NC(=O)c1cccc2c(-c3ccc(O)cc3)cccc12 | -12% | 1.52 |
| COCCOC1CCN(C(=O)c2cccc(-c3ccccc3Cl)c2)CC1 | -11% | 1.9 |
| CCOC(=O)c1cnn(-c2nc3ccccc3[nH]2)c1CN1CCOCC1 | -21% | 2.74 |
| Cc1ccc(CNC(=O)Cn2cc(-c3noc(-c4cccnc4)n3)nc2C)cc1 | -5% | 0.66 |
| c1ccc2c(c1)CCN(Cc1ccc([C@@H]3CCCO3)s1)C2 | -7% | 0.68 |
| CCO[C@H]1C[C@@H](O)C12CCN(C(=O)NCc1ccc(OC)cc1)CC2 | 10% | -1.35 |
| Cc1ccc(CC(=O)N2C[C@H]3CC[C@@H](C2)N(Cc2cscn2)C3=O)cc1 | -14% | 1.88 |

| SMILES | % Inhibition | Z score |
| --- | --- | --- |
| CN1C[C@@H](C(=O)Nc2csc(N3CCCCC3)n2)CC1=O | 38% | -5.12 |
| Cc1noc(CNC(=O)Nc2ncc(C(C)C)s2)n1 | 0% | 0.02 |
| COc1ccc(CC(=O)NCCc2n[nH]c(-c3ccc(OC)cc3)n2)cc1 | -4% | 0.71 |
| COCCn1ccc2cc(C(=O)NCC3(c4ccc(OC)cc4)CCOCC3)ccc21 | -5% | 0.87 |
| CC(C)COC(=O)N1CCN(C[C@@H](C#N)CCC#N)CC1 | -10% | 0.97 |
| Cn1cc(C(=O)NC(c2ccc(F)cc2)C2CCCO2)cn1 (stereo not given) | -10% | 1.37 |
| CCN(C)C(=O)c1ccc(NCCN2CCOCC2)c(Cl)c1 | 8% | -1.25 |
| CC(C)N1CCN(C(=O)CCn2nnc3ccccc3c2=O)CC1 | -7% | 1.21 |
| CCO[C@H]1COCC[C@@H]1NC(=O)c1cnc(-c2cccnc2)nc1 | -6% | 1.06 |
| COC(C)c1nc(C)c(C(=O)N[C@H]2CCCC[C@H]2C(F)(F)F)s1 (stereo not given in full) | -1% | 0.21 |
| CCOC(=O)c1cc(C2CC2)nc2c1c(=O)n(CC(=O)Nc1cc(C)ccc1C)c(=O)n2C | 6% | -0.85 |
| CCCCc1nc(CN2CCC[C@H](Nc3ccc(OC)c(OC)c3)C2)c[nH]1 | -17% | 2.25 |
| O=C(NCCc1ccc(F)cc1)c1ccnc(OC2CCOCC2)c1 | 1% | -0.12 |
| O=C(NCc1cccc(CO)n1)c1ccccc1C1CCC1 | -6% | 1.16 |
| C[C@@H]1CN(C[C@@H]2CN(C(=O)Cc3cc(F)cc(F)c3)C[C@@H]2CO)C[C@H](C)O1 | 0% | -0.09 |
| Cc1nc2c(C(=O)Nc3ccc4cn(C(C)C)nc4c3)ccnc2[nH]1 | 9% | -1.46 |
| Cc1cc(C)cc(OCCCN(C)C(=O)c2ncc(F)cc2F)c1 | -4% | 0.88 |
| CN(Cc1cn[nH]c1-c1ccc(F)cc1)C(=O)[C@H](N)Cc1ccccc1 | -13% | 2.18 |
| O=c1[nH]nc([C@H]2CCCN(C3CCOCC3)C2)n1-c1ccccc1 | 5% | -0.63 |
| COc1cccc(N2CCN(C(=O)c3snc(C(=O)NCC(C)C)c3N)CC2)c1 | 7% | -0.76 |
| CCCNC(=N)c1c(C)ncc2c1CCC2 | -8% | 0.93 |
| Cc1nn(C)c(C)c1-c1cc(-c2ccc3[nH]ccc3c2)c(C#N)c(N)n1 | -7% | 1.37 |

| SMILES | % Inhibition | Z score |
| --- | --- | --- |
| Cc1nc(C)c(C(=O)N(C)Cc2cc(C(C)C)no2)s1 | -10% | 1.17 |
| CC(OC(=O)C1CC2CCC1C2)C(=O)NC(N)=O (stereo not given) | -8% | 1.35 |
| CCCN1CCC(NC(=O)CCC2CCCCC2)CC1 | -13% | 1.19 |
| CCC#CCN1CCC[C@H](CNC(=O)C2CCC2)C1 | -7% | 0.99 |
| O=C(O)[C@@]12CC[C@@H](c3ccccc3)C[C@@H]1CN(Cc1c[nH]cn1)C2 | -10% | 1.92 |
| Cn1nncc1-c1csc(NC2CCCCC2)n1 | -16% | 1.36 |
| COC(=O)c1ccc(NC(=O)N[C@H]2CCNC2=O)cc1 | -3% | 0.53 |
| Cc1ccc(NC(=O)NC(C)C(C)n2cncn2)s1 (stereo not given) | -2% | 0.21 |
| CN(C)c1nc(N2CCN(C3CCCCC3)CC2)nc2c1CNCC2 | -2% | 0.35 |
| CC(C)CCNC(=O)c1cccn(-c2ccc(NC(=O)c3ccc(F)cc3)cc2)c1=O | -18% | 3.05 |
| CC[C@@H](CNC(=O)c1cc(C)no1)N1CCCC1 | 0% | -0.06 |
| COC(=O)C1=C(c2ccccc2)S/C(=C2/C(=S)C(C)(C)Nc3ccc(C)cc32)S1 | -8% | 0.99 |
| CCCN(CCC)S(=O)(=O)N1CCN(CCNC(=O)c2ccco2)CC1 | -8% | 1.16 |
| O=C(NCc1nnc2ccccn12)c1n[nH]c2c1CCCC2 | -28% | 3.82 |
| O=C(CCc1n[nH]c2c1CCCC2)NCCNS(=O)(=O)c1ccc(Cl)cc1 | 5% | -1 |
| Cc1ccc(C)c(NS(=O)(=O)c2c(C)[nH]c(C)c2-c2nnc(C)o2)c1 | 15% | -1.85 |
| O=C(Cc1ccsc1)NCc1cc(C2CC2)ncn1 | 8% | -1.09 |
| CCCOc1ccccc1CN1CCC2(CCC(=O)N(C3CC3)C2)CC1 | -11% | 1.51 |
| O=C(Cn1ccc2ncccc2c1=O)NC[C@H]1CCCO1 | 7% | -1.22 |
| Cc1cc2n(n1)CCCN2C(=O)Nc1cccc(C)c1C | -12% | 1.5 |
| CC(C)n1ncnc1CN1CCC[C@H]1c1ccnn1C | 2% | -0.31 |
| Cc1ccc(-c2cc(C(=O)N3CCN(c4ncccn4)CC3)c3ccccc3n2)s1 | -16% | 2.31 |

| SMILES | % Inhibition | Z score |
| --- | --- | --- |
| O=C(Cc1nnc(-c2ccccc2)o1)NCC1CC1 | -12% | 1.58 |
| O=C(N[C@@H]1CN(CCCc2ccccc2)C[C@H]1CO)C1CCC1 | -8% | 1.21 |
| CCc1cc(CN2CC[C@](C(=O)O)(c3ccccc3)C2)on1 | -5% | 1.13 |
| CCOCCCNC(=O)c1cn(C)nc1[C@H]1CCCN(C(=O)OC(C)(C)C)C1 | -13% | 1.29 |
| N[C@H](c1nc(-c2ccco2)nn1-c1cccnc1)C1CCCCC1 | -11% | 1.28 |
| O=C(NCCc1ccccc1)c1cccc(Oc2cc(-c3ccc(F)cc3)ncn2)c1 | -9% | 1.14 |
| CC1(C)C[C@H]2c3cccc(C(=O)O)c3C(=O)N2Cc2c(Cl)cccc21 | 31% | -3.5 |
| Cc1cccc(Cl)c1S(N)(=O)=O | 5% | -0.62 |
| CO[C@@H](C)c1noc(CN(C)Cc2cncc(C(F)(F)F)c2)n1 | 5% | -0.49 |
| Cc1ccc(C)c(N(C(=O)[C@@H]2CCO2)C(C)C)c1 | -11% | 1.36 |
| Cn1c([C@@H]2CCCO2)nc2cc(NC(=O)CC3CCCC3)cc(C(=O)N3CCc4ccccc4C3)c21 | 5% | -0.85 |
| O=C1C[C@@]2(CCN(c3nccc4cc(C(F)(F)F)ccc34)C2)CN1 | -5% | 0.74 |
| CC(O)CC(C)Nc1ccc(C#N)cc1 (stereo not given) | 8% | -1.02 |
| CCOC(=O)c1c(-c2ccc(Cl)cc2)nn2c1NCN(CCc1ccccc1)C2 | -11% | 1.74 |
| O=C(CCc1cc2n(n1)CCN(Cc1nc3ccccc3[nH]1)C2)NC1CCCC1 | 2% | -0.31 |
| COc1cccc(CN2CCC3(CC2)c2ccccc2[C@@H](NC(=O)c2ccccc2OC)[C@@H]3OC)c1 | 8% | -1.13 |
| OC[C@H]1CCCCN1c1cc(N2CCNc3ccccc3C2)ncn1 | -16% | 1.98 |
| CC[C@H]1CCCCCN1C(=O)C1CC=CC1 | -1% | 0.21 |
| CCn1cnc2cc(-c3noc(-c4ccc(Br)o4)n3)ccc21 | 30% | -3.94 |
